# Measurements: the supplement of paper PMC3334620
# Over roughly 33,000 sequences, “E-score (-0.5 to 0.5)” has its median near -0.013; the highest 2% begin near 0.3. The list shows a part of the results.
# Biological target: T1, Msn1 (UniProt P22148)
# T1 sequence: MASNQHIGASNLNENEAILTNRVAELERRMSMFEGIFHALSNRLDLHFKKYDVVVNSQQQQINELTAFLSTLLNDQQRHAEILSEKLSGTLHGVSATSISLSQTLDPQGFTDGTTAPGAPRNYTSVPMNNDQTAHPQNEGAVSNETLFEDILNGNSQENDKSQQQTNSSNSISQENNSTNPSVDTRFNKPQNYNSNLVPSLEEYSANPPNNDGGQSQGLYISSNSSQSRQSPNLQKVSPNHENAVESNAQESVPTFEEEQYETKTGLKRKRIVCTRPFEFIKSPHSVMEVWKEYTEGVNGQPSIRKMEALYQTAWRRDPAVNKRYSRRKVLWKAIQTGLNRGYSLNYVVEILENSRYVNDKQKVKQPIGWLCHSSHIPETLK
# Experiment: PBM E-score (8-mer binding enrichment) (E-score (-0.5 to 0.5)); higher = stronger / more preferred TF binding; most listed sequences are background and not binding sites
# Details: protein concentration: 200 nM; construct: GST-full length
# Description: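 Universal 'all 10-mer' protein binding microarrays (Agilent AMADID 015681) probed with GST-tagged S. cerevisiae TFs (full-length or DBD) made by in vitro transcription/translation (PURExpress), about 100-200 nM. Bound TF was detected with fluorescent anti-GST. Each ungapped 8-mer (which stands for itself and its reverse complement) is scored by the PBM enrichment score (E-score), a modified Wilcoxon-Mann-Whitney statistic from -0.5 to +0.5, computed with the Universal PBM Analysis Suite. Scale: above 0.35 generally sequence-specific binding.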
row,Sequence,PBM E-score
1,ATTACGTA,0.115
2,AATGAGAC,-0.109
3,TCAACCAA,-0.0828
4,GTGGTTCA,0.0668
5,ACCTTGAT,-0.0483
6,TGATGTAA,0.0977
7,CGTTTGGA,0.0306
8,CTTTGGCC,0.0387
9,TAACCGGA,0.14
10,CACTACAC,-0.0989
11,AAGCTGCG,0.00828
12,CGGGCATA,0.0289
13,CAACTGCC,0.0612
14,GGCCTAAC,0.115
15,GCTAGGGA,-0.174
16,TCAGTGAA,0.0451
17,ACCTGGCG,-0.222
18,ATCCACCC,-0.206
19,CCATGATC,-0.136
20,CCCTAAGA,-0.0786
21,ACTGATTG,-0.00112
22,AACCTATT,-0.0559

row,Sequence,PBM E-score
1,AGGGAACG,-0.142
2,AGATATAA,0.0626
3,ATCGTTCA,-0.0729
4,CTTTTTCA,0.00105
5,CCAAGACC,-0.0429
6,CTAAAGAC,0.0581
7,AGCTATAA,-0.0523
8,CGGGGAAG,-0.204
9,ATGAGCAC,-0.0845
10,ACGTGAAG,0.0431
11,CAGCGAGA,-0.234
12,CCACGTAC,0.0149
13,AAAAATCC,-0.0571
14,GATCCAGC,-0.25
15,ATTCTGGC,-0.0721
16,AAAGAAAC,0.205
17,ACACTGAT,0.00132
18,GTGTTTGA,0.154
19,CCCAGTTC,-0.0399
20,GGAGCCGA,-0.0414
21,AAGTATTG,0.0345
22,TGTCCACA,0.455

row,Sequence,PBM E-score
1,TATTTGCA,0.145
2,CAGCACTA,-0.0613
3,GCTCCGAA,0.232
4,AGTATTCC,0.0538
5,AATCTTCA,0.211
6,AGGAAGCC,-0.238
7,CGACCCAC,-0.208
8,GAACGGAC,-0.0194
9,AAGCATTG,-0.0998
10,GTGGAGCA,-0.158
11,AAGGGTAC,-0.136
12,AACAAGTG,-0.0369
13,AGGAGATC,-0.00189
14,AGCCTTAA,0.00365
15,GGTTAGCA,-0.0578
16,GGCATCCA,-0.126
17,CCGAGGTA,0.121
18,GAATTCAA,0.0554
19,AAAAATGC,0.0785
20,GAAGCTTC,-0.0961
21,CTATTCGA,0.14
22,CTTGCCGC,-0.111

row,Sequence,PBM E-score
1,CAAAGTCA,0.0661
2,AGATGCAC,-0.243
3,ACTGAAAG,0.149
4,GGTGTCCA,0.352
5,CCAGCGTA,-0.121
6,CCCTTGGA,-0.0474
7,GCGTTTCA,0.0438
8,CGTTACAC,-0.104
9,ATTACACC,0.0147
10,CTACGCAC,-0.0808
11,CTACTTAC,-0.104
12,CATCTGAC,0.0663
13,AACTATCC,-0.0648
14,AATTCTGT,0.0506
15,AACAATTA,0.165
16,GGTGGGAC,0.0174
17,GCCGAACC,-0.0128
18,AGCTATGC,-0.342
19,CAATGGCA,0.0114
20,AGCCGGGG,-0.291
